From PubChem BioAssay (NCATS)
Values joined by “and” are separate entries in the source; they are usually repeats but may differ in a detail not shown here. Equal values may be shown once. Inconclusive means that the source gave no clear call. Such entries were picked first, then a sample of the others. Where the call is inconclusive, the potency comes from a doubtful curve fit. Active and inactive are the calls of the source. Calls come from the whole dose curve; as a rule, active = well fitted inhibition curve with a large enough effect; inconclusive = small, poorly fitted or top-dose-only effect; inactive = flat fitted curve, though single readings scatter.

test system: HEK293; assay: Cytotoxic Profiling of Annotated Libraries Using Quantitative High-Throughput Screening (AID 1296008); details: Five cell lines viability, CellTiter-Glo ATP luminescence, 48-72 h; max response: stronger effect = lower value; note: nearly all actives have a fitted effect of over 60% in size
How it was run: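 Compounds were pin-transferred onto cells and incubated 48 or 72 hr at 37 degree Celsius, 95% humidity. CellTiter-Glo was added, plates sat 10 min at room temperature, then ATP-coupled luminescence was imaged as the viability read-out.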
% is set by controls: 0 for no effect and ±100 for the full control effect; potency is the fitted concentration of half-maximal effect; tags give direction and shape of the fitted curve.

Row | Compound | Potency | max response | outcome
1 | C=C(CCC1=C(C)[C@H]2[C@H](CC3[C@@H]4CC=C5C[C@@H](O)C[C@@H](O)[C@]5(C)C4[C@H](O)C[C@@]32C)O1)CO[C@@H]1O[C@H](CO)[C@@H](O)[C@H](O)[C@H]1O (some centres not stated) | active: 1.37 µM |  | 
2 | C[C@@H](O[C@H]1OCCN(Cc2n[nH]c(=O)[nH]2)[C@H]1c1ccc(F)cc1)c1cc(C(F)(F)F)cc(C(F)(F)F)c1 | inconclusive: 29.9 µM [inhibitor, single point] |  | 
3 | C(=C\c1ccccc1)/CN1CCN(C(c2ccccc2)c2ccccc2)CC1 | active: 15 µM |  | 
4 | C=C1C(=O)O[C@H]2/C=C(/C)[C@@H](OC(C)=O)C/C=C(\C)C[C@@H](OC(=O)/C(=C/C)COC(=O)/C(=C/C)CO)[C@@H]12 | active: 3.17 µM |  | 
5 | O=C(/C=C/c1ccc(O)c(O)c1)O[C@H]1[C@H](OC2CCCCC2O)O[C@H](CO)[C@@H](O)[C@@H]1O (some centres not stated) |  | inactive: -0.453% | 
6 | CNc1cccc(CCOc2ccc3c(c2)CN(CC(F)(F)F)C(=O)[C@H](CC(=O)O)C3)n1 | inconclusive: 6.51 µM [inhibitor, full curve] |  | 
7 | CC(Nc1ncnc2nc[nH]c12)c1cc2cccc(Cl)c2c(=O)n1-c1ccccc1 (configuration not stated) | active: 18.4 µM |  | 
8 | Cc1ccccc1-n1c([C@H](C)Nc2nc(N)nc3nc[nH]c23)nc2cccc(C)c2c1=O | active: 16.4 µM |  | 
9 | CC1CCN(C(=O)CC#N)CC1N(C)c1ncnc2[nH]ccc12 (configuration not stated) |  |  | inactive
10 | O=C1CSc2ccccc2N1Cc1cccc(C(F)(F)F)c1 |  | inactive: -20.3% | 
11 | CCN(CC)CCCCNc1ncc2c(n1)N(C)C(=O)N(c1c(Cl)c(OC)cc(OC)c1Cl)C2 | active: 2.09 µM |  | 
12 | COc1ccc(Cc2cnc(N)nc2N)cc1OC |  | inactive: 2.64% | 
13 | C/C1=C\CCC2=CC(OC2=O)C(C)(C)/C=C/C1=O (configuration not stated) | active: 6.51 µM |  | 
14 | COc1cc2nc(N3CCN(C)CC3)nc(NC3CCN(Cc4ccccc4)CC3)c2cc1OC | inconclusive: 8.2 µM [inhibitor, partial curve, poor fit] |  | 
15 | CC(=O)O[C@H]1CC(C)(C)CC2[C@]13CO[C@@]21CCC2[C@@]4(C)CC[C@H](O[C@@H]5OC[C@H](O[C@@H]6O[C@H](CO)[C@@H](O)[C@H](O)[C@H]6O[C@@H]6OC[C@@H](O[C@@H]7O[C@H](CO)[C@@H](O)[C@H](O)[C@H]7O)[C@H](O)[C@H]6O)[C@H](O)[C@H]5O[C@@H]5O[C@H](CO)[C@@H](O)[C@H](O)[C@H]5O)[C@@](C)(CO)C4CC[C@@]2(C)[C@]1(C)C[C@H]3O (some centres not stated) | inconclusive: 4.9 µM [inhibitor, single point] |  | 
16 | CCOC(=O)c1cnn(-c2ccccc2)c1NC(=O)c1cc2nc(-c3ccco3)cc(C(F)(F)Cl)n2n1 | inconclusive: 29.1 µM [inhibitor, single point] |  | 

Row | Compound | Potency | max response | outcome
17 | COc1ccc2nccc(C(=O)CC[C@@H]3CCN(CC#Cc4cc(F)cc(F)c4F)C[C@@H]3C(=O)O)c2c1 | inconclusive: 18.4 µM [inhibitor, single point] |  | 
18 | CCN(CC)CCOc1ccc2c(c1)C(=O)c1cc(OCCN(CC)CC)ccc1-2 | active: 7.5 µM |  | 
19 | Cc1c(NC(=O)c2cc(C(N)=O)nc3cc(F)ccc23)c(C(F)(F)F)nn1Cc1ccc(C#N)cc1 | active: 0.0862 µM |  | 
20 | O=S(=O)(N[C@H]1CCCC[C@@H]1N1CCOCC1)c1ccc(Cl)cc1 | inconclusive: 29.1 µM [inhibitor, single point] |  | 
21 | CN1CCc2cccc3c2[C@H]1Cc1ccc(O)c(O)c1-3 | active: 23.7 µM |  | 
22 | Cc1ccc(Nc2c(F)cccc2Cl)c(CC(=O)O)c1 | inconclusive: 29.1 µM [inhibitor, single point] |  | 
23 | N#CC(c1ccnc(OCc2ccc(CN3CCOCC3)cc2)n1)c1nc2ccccc2s1 (configuration not stated) | active: 5.17 µM |  | 
24 | Cc1nc2c(C(F)(F)F)cccc2nc1-c1ccc(-c2cccc(S(C)(=O)=O)c2)cc1 | inconclusive: 5.17 µM [inhibitor, full curve] |  | 
25 | Cc1cc(C)c(CNC(=O)c2cc(-c3ccc(CN4CCOCC4)cc3)cc3c2cnn3C2CCCC2)c(=O)[nH]1 | inconclusive: 29.1 µM [inhibitor, single point] |  | 
26 | CC(=O)O[C@@](C)(C(=O)/C=C/C(C)(C)O)[C@H]1[C@H](O)C[C@@]2(C)[C@@H]3CC=C4[C@@H](C=C(O)C(=O)C4(C)C)[C@]3(C)C(=O)C[C@]12C | active: 5.63 µM |  | 
27 | Cc1cc(C)c(Nc2ccnc(Nc3ccc(C#N)cc3)n2)c(C)c1 | active: 5.17 µM |  | 
28 | C=C1C(=O)O[C@@H]2C[C@H](C)[C@@H]3CC(=O)C(C)=C3C[C@H]12 | active: 8.2 µM |  | 
29 | CCNC(=O)C#Cc1ccc2c(C(=Nc3ccc(CN(C)C)cc3)c3ccccc3)c(O)[nH]c2c1 | inconclusive: 7.96 µM [inhibitor, single point] |  | 
30 | CC(=O)NCC(=O)N1C2CCC1c1cc(Nc3ncc(C(F)(F)F)c(NC4CCC4)n3)ccc12 (configuration not stated) | active: 2.59 µM |  | 
31 | Cc1c(NC(=O)OCC2COCCN2)cn2ncnc(Nc3ccc4c(cnn4Cc4cccc(F)c4)c3)c12 (configuration not stated) | inconclusive: 23.1 µM [inhibitor, single point] |  | 
32 | CN1CCN(c2ccc(C(=O)Nc3n[nH]c4ccc(Cc5cc(F)cc(F)c5)cc34)c(NC3CCOCC3)c2)CC1 | inconclusive: 9.2 µM [inhibitor, partial curve, poor fit] and active: 7.41 µM |  | 
